# In PubChem BioAssay AID445 (National Center for Advancing Translational Sciences (NCATS), 2006):
# Among all 110,000 compounds or so, about 40 (0.04%) were called active. This list was built around the results that the source calls inconclusive (neither active nor inactive); the mix of calls is not that of the screen. Calls follow the shape of the dose curve; as a rule, active = well fitted curve in the direction sought with a large enough effect in the signal ratio (not every such curve was filed as active); inconclusive = small, poorly fitted or top-dose-only effect, or a change in a side signal; inactive = flat fitted curve, though single readings scatter; the % refers to the signal ratio. A potency beside an inconclusive call is a rough fit, not a confirmed value.
# Assay: IkB Signaling;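 as to IkBa stabilization activation: 0% = basal untreated cells and 100% = reference inhibitor full response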
# Conditions: ABC-DLBCL IkBa-CBG/CBR dual luciferase ratio (green luciferase fused to IkBa over red control in OCI-Ly3 lymphoma cells), 4 h; IkBa stabilization activation: at 57.1 µM (top of the series), scaled: untreated 0%, proteasome inhibitor 100% unless noted
# Procedure, shortened: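 In this assay, an IκBα–CBG68 fusion accumulates when IKK-driven degradation is blocked; native CBR normalizes for cell number. OCI-Ly3 cells were treated 4 h with compound and doxycycline, then green and red light read after Chroma-Glo addition.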
# Potency is read from the fitted curve at half-maximal effect.
SMILES,IkBa stabilization activation,Potency
Nc1ncc(S(=O)(=O)Nc2ccc(F)cc2F)cn1,inconclusive: 2.75% [signal inhibitor],–
CCCCCSc1nc2c(c(=O)[nH]c(=O)n2C)n1C(C)C,inactive: -4.2%,–
CCOC(=O)c1c(NC(=O)COc2cccc(C)c2C)sc(C(C)=O)c1C,–,inconclusive: 0.631 µM [signal inhibitor]
CN(C)C=O,inactive,–
COC(=O)c1ccccc1NC(=O)Cn1c(=O)cc(C)c2c(C)nn(C)c21,inconclusive: 10.9% [signal inhibitor],–
Cc1ccc(Cn2nnc3c(=O)[nH]c(C4CCN(S(=O)(=O)c5ccc(C)cc5)CC4)nc32)cc1,inconclusive: 4.79% [signal inhibitor],–
Cc1ccc(C)c(Cn2c(C(=O)O)c(CNCc3cccs3)c3ccccc32)c1,inconclusive: 0.756% [signal inhibitor],–
CC(=O)Nc1c(C)nn(-c2ccccc2)c1N1CCC(C(=O)NCc2ccccc2Cl)CC1,inconclusive: 2.03% [signal inhibitor],–
CN(C)S(=O)(=O)c1ccc2c(c1)/C(=C/c1cc3c([nH]1)CCCC3)C(=O)N2,inactive: -15%,–
COc1ccc(CCN2C(=O)c3[nH]nc(-c4ccccc4O)c3C2c2ccc(OC)c(OC)c2)cc1 (centres undefined),inconclusive: 3.67% [signal inhibitor],–
Cn1cccc1C(=O)N1CCC2(CCN(C(=O)Nc3ccccc3)CC2)CC1,"inactive: 3.15% [at 11.4 µM, scaled: untreated 0%, proteasome inhibitor 100%]",–
CC(c1ccco1)N(C(=O)CSc1ccc(Br)cc1)c1ccccn1 (centres undefined),inconclusive: 2.34% [signal inhibitor],–
O=C(COc1ccccc1Cl)Nc1ccc2nc(SCC(=O)N3CCCC3)sc2c1,inconclusive: 1.55% [signal inhibitor],–
CCOC(=O)C1=C(CS(=O)(=O)c2ccc(OC)c(Cl)c2)NC(=O)NC1c1cccc(OC)c1 (centres undefined),inconclusive: -0.767% [signal inhibitor],–
COc1ccc2[nH]cc(CCNc3ccnc(-c4cccc(C#N)c4)n3)c2c1,"inactive: -2.97% [at 11.4 µM, scaled: untreated 0%, proteasome inhibitor 100%]",–
N#C/C(=C(/O)COC(=O)CCc1ccc(S(=O)(=O)N2CCOCC2)cc1)c1nc2ccccc2[nH]1,–,"inconclusive: 25.1 µM [rising, partial curve]"
Cc1ccc2cc(CN(CC3CCCO3)C(=O)C(C)C)c(=O)[nH]c2c1 (centres undefined),inactive: 2.15%,–
CCc1cccc(NC(=O)c2ccc(NC(=O)N3CCSc4ncccc43)cc2)c1,inconclusive: 1.2% [signal inhibitor],–
Cc1ccc(NC(=O)N2CCN(c3cc(-c4noc(C)n4)ccc3C)CC2)c(F)c1,inconclusive: 2.18% [signal inhibitor],–
Cc1ccc2nc(-c3cc(NC(=O)COc4ccc(C)c(C)c4)ccc3Cl)oc2c1,inactive: 1.63%,–
Cn1c(NCc2ccco2)nc2ccccc21,inconclusive: 4.12% [signal inhibitor],–
COC(=O)c1cc(C)nc2c1c(=O)nc(SCc1ccccc1C)n2C1CC1,inconclusive: 1.68% [signal inhibitor],–
NC(N)=Nc1ccc(-c2ccc(N=C(N)N)cc2)cc1,"inactive: 0.213% [at 11.4 µM, scaled: untreated 0%, proteasome inhibitor 100%]",–

SMILES,IkBa stabilization activation,Potency
Brc1cc2c(cc1Cn1c(-c3cncs3)nc3ccccc31)OCO2,inactive: -0.253%,–
COC(=O)c1[nH]c2ccc(Cl)cc2c1NC(=O)CN1CCC(C(N)=O)CC1,inactive: 0.429%,–
O=C(Cn1c(=O)n(Cc2ccccc2)c(=O)c2sc3ccccc3c21)Nc1ccccc1,inactive: 1.33%,–
Cc1ccc(Cl)cc1NC(=O)Nc1cccc(OCc2cc(=O)n3ccccc3n2)c1,inconclusive: 1.47% [signal inhibitor],–
COc1ccc(N2CCN(C(=O)C3CCCN(S(=O)(=O)c4cccc5cccnc45)C3)CC2)cc1 (centres undefined),inconclusive: 1.09% [signal inhibitor],–
COc1ccc(-n2c(-c3ccco3)nc3c(cnn3-c3ccccc3Cl)c2=O)cc1,inconclusive: 3.5% [signal inhibitor],–
N#Cc1nc(-c2ccc(COc3ccc(Cl)cc3)o2)oc1N1CCC(C(N)=O)CC1,inactive: 3.74%,–
COc1ccc(OC)c(C2=NS(=O)(=O)N(C)C(C(=O)Nc3ccc(F)cc3F)=C2)c1,inconclusive: 6.34% [signal inhibitor],–
Cc1nn(C)c(C)c1Sc1ccc(Br)cc1,inactive: 3.81%,–
Cc1ccc(-c2nnc3ccc(SCC(=O)Nc4cc(C)on4)nn23)cc1,inactive: -3.38%,–
O=C(Cn1c(=O)n(-c2ccccc2)c(=O)c2c3c(sc21)CCCC3)Nc1ccc(F)cc1F,–,"inconclusive: 31.6 µM [rising, single point]"
CCOc1ccccc1NC(=O)CC1Nc2cc(C)c(C)cc2NC1=O (centres undefined),–,"inconclusive: 7.94 µM [signal inhibitor, full curve]"
O=S(=O)(c1ccc2c(c1)OCCO2)N1CCC(O)(c2ccc(Cl)cc2)CC1,inactive: -1.45%,–
COc1ccc(C2C(C(=O)c3ccc(C)o3)=C(O)C(=O)N2c2cc(C)on2)cc1OC (centres undefined),inactive: 0.735%,–
Cc1ccc2cccnc2c1,inactive: 1.7%,–
COc1ccc(OC)c(CNS(=O)(=O)c2ccc(-c3coc(C)n3)cc2)c1,inactive: 1.87%,–
CC(=O)c1cc(-c2ccccc2)n(CC(=O)Nc2ccc(C)c(C)c2)c1C,inconclusive: 1.65% [signal inhibitor],–
COc1ccccc1-c1noc(-c2ccc(NC3CCCC3)c([N+](=O)[O-])c2)n1,inconclusive: 10.3% [signal inhibitor],–
O=C(CN1CCc2ccccc2C1)Nc1ccccc1N1CCCCCC1,inconclusive: 2.22% [signal inhibitor],–
Cc1ccccc1-n1c(SC/C(O)=C(\C#N)c2nc3ccccc3[nH]2)nnc1-c1ccncc1,inconclusive: 4.88% [signal inhibitor],–
Cc1ccc(Nc2nnc(-c3ccc(C)c(S(=O)(=O)N4CCOCC4)c3)c3ccccc23)cc1,inconclusive: 17.2% [signal inhibitor],–
CCC(=O)C1=C(c2ccc(OC)c(OC)c2)N(C(=O)CC)n2c(nnc2-c2ccc(C)cc2)S1,inconclusive: 1.84% [signal inhibitor],–
CC(=O)c1ccc(N2CCN(c3ccc4cc(S(=O)(=O)N5CCCCC5)ccc4n3)CC2)cc1,inactive: -2.03%,–

SMILES,IkBa stabilization activation,Potency
CC1CN(S(=O)(=O)c2cccc(C(=O)OCc3cc(=O)oc4cc(O)ccc34)c2)CC(C)O1 (centres undefined),inconclusive: 2.06% [signal inhibitor],–
COc1ccc(Cl)cc1NC(=O)Cn1ccn(-c2cc(C)cc(C)c2)c(=O)c1=O,inconclusive: 1.26% [signal inhibitor],–
CCOc1cccc(CNC(=O)c2ccc(N3CCCC3)c(NC(=O)NCc3ccccc3)c2)c1,inconclusive: 1.05% [signal inhibitor],–
Cc1ccccc1CNC(=O)CCS(=O)(=O)c1cc2c3c(c1)CCN3C(=O)CC2,inconclusive: 0.899% [signal activator],–
CCC[C@@H]1O[C@@H]2C[C@@H]3[C@@H]4CCC5=CC(=O)C=C[C@@]5(C)[C@H]4[C@H](O)C[C@@]3(C)[C@@]2(C(=O)CO)O1,inconclusive: 28.4% [signal activator],–
CCOc1ccc(N(CC(=O)Nc2cccc(Cl)c2)S(=O)(=O)c2c(C)noc2C)cc1,inconclusive: 4.63% [signal inhibitor],–
CCOC(=O)C1CCCN(Cc2ccc(OC)cc2OC)C1 (centres undefined),inactive: 2.28%,–
CCn1c(SCc2ccc(C#N)cc2)nnc1-c1ccc(S(=O)(=O)N2CCCCC2)cc1,inactive: 10.9%,–
Cc1cc(OC(C)C(=O)N(Cc2ccc(N(C)C)cc2)Cc2ccco2)ccc1Cl (centres undefined),inconclusive: 2.15% [signal inhibitor],–
CC1CCCN(CCCNC(=O)c2ccc3c(c2)N(Cc2ccc(Cl)cc2)C(=O)c2ccccc2S3(=O)=O)C1 (centres undefined),inconclusive: 2.76% [signal inhibitor],–
Cc1ccccc1C(=O)Nc1cccc(OCc2cc(=O)n3cccc(C)c3n2)c1,inconclusive: 4.03% [signal inhibitor],–
O=C(c1cnc(N2CCN(c3ncccn3)CC2)c2ccccc12)N1CCN(c2ccccn2)CC1,inconclusive: -4.27% [signal inhibitor],–
COC(=O)c1ccc(NC(=O)c2ccc3c(c2)OCO3)cc1,inconclusive: 11.4% [signal inhibitor],–
N#Cc1ccsc1NC(=O)COc1ccc(-c2nnco2)cc1,–,"inconclusive: 20 µM [signal inhibitor, partial curve]"
O=C(NCc1ccccc1)c1ccc2c(c1)CCN2S(=O)(=O)c1ccc(Cl)cc1,inconclusive: 1.72% [signal inhibitor],–
CCOc1ccc(NC(=O)CSC(N)=O)cc1,inconclusive: 10.2% [signal activator],–
CN1CCN(CCc2ccc(Cl)c(Cl)c2)CC1,inactive: 0.272%,–
COc1ccc2cc3c(N)nn(C(=O)c4ccccc4Cl)c3nc2c1,inconclusive: 2.56% [signal inhibitor],–
COc1ccc(-c2noc(CN(C(=O)C(C)Oc3ccc(C)cc3)C(C)C)n2)cc1 (centres undefined),inconclusive: 0.125% [signal inhibitor],–
COc1ccc2[nH]c(=O)c(C(c3nnnn3C(C)(C)C)N(Cc3ccco3)CC3CCCO3)cc2c1 (centres undefined),inactive: 1.15%,–
O=C(CC1Nc2ccccc2NC1=O)NC1CCCCC1 (centres undefined),inactive: 0.884%,–
Cc1cccc(CCNC(=O)c2cc3c(s2)-c2c(C)cccc2OC3)c1,inconclusive: 2.48% [signal inhibitor],–
Cc1ccc2c(c1)N(C(=O)Nc1cccc3c1CCCC3)CCO2,inconclusive: -1.86% [signal inhibitor],–
